# Data reported in PubChem BioAssay AID1918991 (Molecular Pharmacology Branch, DTP, NCI, 2023).
# For part of its entries the source gives two or more results. The list is limited to them. There may be further records. The values listed for one entry repeat one measurement across runs, samples, wells, individuals or studies. Marks such as (2×) give the number of equal values in this list.
# System: 186277-243-T-J2-PDC complex spheroid growth
# Test: Anticancer human tumor 186277-243-T-J2-PDC patient-derived colon adenocarcinoma cell line growth inhibition [AhR]
# Conditions: for viability, T/C: stronger effect = lower value; for IC50: compound alone
# Excerpt: Multicellular complex tumor spheroid response to aryl hydrocarbon receptor antagonists in combination with a variety of drugs and investigational agents in selected tumor cell lines
# The current study was undertaken to assess response to aryl hydrocarbon receptor antagonists in combination with standard-of-care drugs and investigational agents in solid tumor complex spheroid models. Complex spheroids include a stromal component modeled by human endothelial cells (HUVEC) and fibroblasts modeled by human mesenchymal stem cells (MSCs). The concentration ranges selected for each drug and investigational agent were based upon clinically achievable concentrations if the clinical Cmax of the agent was known.
# Compounds. The drugs and investigational agents: BAY 2416964 (NSC825713), GNF351 (NSC835774), CH-223191 (NSC835775), CPI-455 (NSC825282), aza-TdCyd (NSC777586), decitabine (NSC127716), belinostat (NSC758774), entinostat (NSC756642), pevonedistat (NSC761192), tazemetostat (NSC777109), talazoparib (NSC765396), olaparib (NSC753686), selinexor (NSC780203), nedisertib (M3814, NSC802822), bortezomib (NSC756655), venetoclax (NSC766270), doxorubicin (NSC123127), elimusertib (BAY189344, NSC800525), ceralasertib (AZD6738, NSC777638), TAK-243 (NSC785004), alisertib (NSC759677), etoposide (NSC141540), topotecan (NSC609699), eribulin (NSC707389), gemcitabine (NSC613327), carboplatin (NSC241240), cisplatin (NSC119875), and SN-38 (NSC673596) were obtained from the National Cancer Institute (NCI) Developmental Therapeutics Program Chemical Repository (32). The FDA-approved anticancer drug set is available from the Developmental Therapeutics Program at https://dtp.cancer.gov/organization/dscb/obtaining/available plates.htm. […] The stock solutions were prepared in dimethyl sulfoxide (DMSO, Sigma-Aldrich, St. Louis, MO, cat. D2650), except for the platinum compounds which were prepared in saline (Quality Biological, Gaithersburg, MD, cat. 114-055-101), at 800-fold the tested concentration and stored at -70 degrees C prior to their use. All drugs and investigational agents were tested over a range starting from a high concentration at or near the clinical Cmax and decreasing in half-log increments. If the clinical Cmax for an agent had not been determined, the highest concentration tested was 10 microM (Table 1).
# Cell Culture. All cells were maintained in an incubator at 37 degrees C and 5% CO2 with 95% humidity. The PDC lines were cultured according to standard operating procedures established by the NCI PDMR (https://pdmr.cancer.gov). Briefly, all PDCs were thawed and cultured in Matrigel-coated flasks prepared with a working solution of 1X Ham's F-12 nutrient mix, without supplementation (Invitrogen, Waltham, MA, cat. 11765054), 100 U/mL penicillin-streptomycin (Invitrogen, cat. 15140122), and 2.5% Matrigel (Corning Inc., Corning, NY, cat. 354248) for the first three passages. All PDCs were cultured in complete DMEM/F-12 media containing advanced DMEM/F-12 (Invitrogen, cat. 12634028), 4.9% defined fetal bovine serum, heat inactivated (HyClone Laboratories Inc., Logan, UT, cat. SH30070.03HI), 389 ng/mL hydrocortisone (Sigma-Aldrich, cat. H4001), 9.7 ng/mL human EGF recombinant protein (Invitrogen, cat. PHG0313), 23.4 microg/mL adenine (Sigma-Aldrich, cat. A2786), 97.3 U/mL penicillin-streptomycin (Invitrogen, cat. 15140122), 1.9 mM L-glutamine (Invitrogen, cat. 25030081), and 9.7 microM Y-27632 dihydrochloride (Tocris Bioscience, Bristol, United Kingdom, cat. 1254). The PDCs were cultured in complete DMEM/F12 media without 10 microM Y-27632 dihydrochloride for at least two passages prior to the screen. The established cell lines NCI-H1341 and […] were cultured in DMEM/F-12, HEPES (Invitrogen, cat. 11330032), 5% defined fetal bovine serum (HyClone Laboratories Inc., cat. SH30070.03), ITS premix universal culture supplement [insulin (5 microg/mL), transferrin (5 microg/mL), and selenious acid (5 ng/mL)] […]
# 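Also: spheroids exposed to compounds for seven days before the viability read.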
# 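For viability, T/C in this document: luminescent signal used as a stand-in for viable cell amount; 100% = DMSO vehicle control wells.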
smiles,measurement,setting,value
Cc1ccccc1N=Nc1ccc(NC(=O)c2ccnn2C)c(C)c1,"viability, T/C",compound alone 0.1 µM,"102 (3×), 99.3, 99.1, 97.7, 96.8, 103, 101 (2×), 115, 85, 97.9, 91.9, 108 (2×), 89.6, 96.5, 104, 88.9%"
same,"viability, T/C",compound alone 0.316 µM,"86.2, 101 (2×), 86.3, 94.8, 114, 111 (2×), 93.7 (2×), 100 (2×), 99.8, 105 (2×), 106, 98.2, 103, 90.2, 88.4%"
CCc1c2c(nc3ccc(O)cc13)-c1cc3c(c(=O)n1C2)COC(=O)[C@]3(O)CC,IC50,,"< 0.949 nM, 27.1 nM, 77 nM"
CC1COCCN1c1cc(-c2ccnn2C)c2ccnc(-c3ccn[nH]3)c2n1 (centres undefined),"viability, T/C",compound alone 0.1 µM,"6.77%, 37.1%, 39%"
Cc1cncc(-c2nc(NCCc3c[nH]c4ccccc34)c3ncn(C(C)C)c3n2)c1,IC50,"AhR antagonist combinations, run of 07/18/2022","> 10 µM, 8.81 µM, 9.25 µM, 9.4 µM, 9.2 µM, 6.79 µM, 7.32 µM, 6.38 µM, 7.28 µM, 6.71 µM"
same,"viability, T/C",compound alone 0.1 µM,"99.5, 103 (2×), 97.3, 96, 97.5, 85.9, 93.5, 106, 84.5, 97.9, 90.6, 81.9, 80.9, 89.1, 98.9, 94.8, 89.9, 97.8, 107%"
same,"viability, T/C",compound alone 1 µM,"103 (2×), 105 (2×), 110, 94.9, 94.5, 98, 104, 88.7, 106, 88.5, 117, 100, 107, 101, 91.6, 96.3, 98.3, 111%"
same,"viability, T/C",compound alone 3.16 µM,"100 (2×), 104 (2×), 109, 101, 97.6, 110 (2×), 120, 88.2, 106 (2×), 102, 93.2, 107, 108, 84.6, 91.8, 111%"
same,"viability, T/C",compound alone 10 µM,"56.4, 64.5, 66.6, 57.9, 110, 54.1, 44, 45.9, 47.8, 45.8, 102, 96.2, 78, 83.8, 79.3, 89.5, 77.1, 77, 83.5, 97.5%"
COc1cc(Nc2ncc3c(n2)-c2ccc(Cl)cc2C(c2c(F)cccc2OC)=NC3)ccc1C(=O)O,IC50,,< 31.6 nM and > 10 µM (2×)
CC(C)CC(NC(=O)C(Cc1ccccc1)NC(=O)c1cnccn1)B(O)O (centres undefined),"viability, T/C",compound alone 0.00949 µM,"3.18%, 76.2%, 87.4%"
CC1(C)CCC(CN2CCN(c3ccc(C(=O)NS(=O)(=O)c4ccc(NCC5CCOCC5)c([N+](=O)[O-])c4)c(Oc4cnc5[nH]ccc5c4)c3)CC2)=C(c2ccc(Cl)cc2)C1,"viability, T/C",compound alone 10 µM,"8.91%, 83.5%, 31.2%"
O=C(C=Cc1cccc(S(=O)(=O)Nc2ccccc2)c1)NO,"viability, T/C",compound alone 3.16 µM,"2.65%, 13.5%, 29.4%"
COc1cccc2c1C(=O)c1c(O)c3c(c(O)c1C2=O)CC(O)(C(=O)CO)CC3OC1CC(N)C(O)C(C)O1 (centres undefined),IC50,,"< 31.6 nM, 188 nM, 459 nM"
same,"viability, T/C",compound alone 0.316 µM,"6.89%, 30.9%, 71.2%"
COc1cc(C2c3cc4c(cc3C(OC3OC5COC(C)OC5C(O)C3O)C3COC(=O)C23)OCO4)cc(OC)c1O (centres undefined),IC50,,"276 nM, 1.65 µM, 9 µM"
CC(CO)NC(=O)c1cc(-c2ccc(Cl)cc2)nn(-c2cnn(C)c2)c1=O (centres undefined),"viability, T/C",compound alone 0.1 µM,"88.7, 95.4, 109, 105, 97.6, 104, 102, 99 (2×), 106, 107, 108, 99.3, 90.1, 82.2, 101, 98.2, 87.1, 103, 111%"
same,"viability, T/C",compound alone 0.316 µM,"97.3, 101 (3×), 108 (2×), 105 (2×), 104 (2×), 107, 111 (2×), 103, 109 (2×), 88.3, 99.2, 89.8, 118, 102%"
same,"viability, T/C",compound alone 3.16 µM,"104, 98, 83, 95.2, 97.5, 99.4, 100, 90.5, 112, 84.1, 97.6, 91.3, 99, 102, 91.7, 98.7, 89.5, 92.4, 106%"
